Data taken from the supplement of paper PMC10369915.
The list shows a part of the results. No stated cut-off is given here; in the data, active = 3.2 or more and inactive = the rest. Only a few entries rise above the background.

B1: RPL5_Y207 (peptide)
chain: QNVADYMRYLM
B2: RPL5_Y207_Y210C (peptide)
chain: QNVADYMRCLM
B3: RPS19_Y48 (peptide)
chain: KELAPYDENWF
B4: RPS19_Y48_W52C (peptide)
chain: KELAPYDENCF
B5: RPS19_Y54_A57P (peptide)
chain: DENWFYTRPAS
B6: RPS19_Y54_T55M (peptide)
chain: DENWFYMRAAS
B7: RPS6KA3_Y226_A225V (peptide)
chain: HEKKVYSFCGT
B8: RPS6KA3_Y433 (peptide)
chain: IGVGSYSVCKR
B9: RPS6KA3_Y483 (peptide)
chain: TLKDVYDDGKY
B10: RPS6KA3_Y483_YF (peptide)
chain: TLKDVYDDGKF
B11: RPS6KA3_Y488 (peptide)
chain: YDDGKYVYVVT
B12: RPS6KA3_Y488_Y483C (peptide)
chain: CDDGKYVYVVT
B13: RPS6KA3_Y488_YF (peptide)
chain: FDDGKYVFVVT
B14: RPS8_Y109_R110G (peptide)
chain: IDSTPYGQWYE
B15: RPS8_Y113_R110G_YF (peptide)
chain: PFGQWYESHFA
B16: RS1_Y165_W163C (peptide)
chain: RLNCIYYKDQT
B17: RS1_Y166_W163C_YF (peptide)
chain: LNCIFYKDQTG
B18: RS1_Y177_G178D (peptide)
chain: NNRVFYDNSDR
B19: RSPO4_Y112_C107R (peptide)
chain: RKRQFYLYKGK

target: SHP2 C-SH2 domain E139D; test: enrichment score (SH2-bound / input frequency) (ratio); bacterial display of known human phosphotyrosine sites (pTyr-Var adds point mutants) read by sequencing; higher = stronger binding; tyrosines were phosphorylated by kinases first; details: peptide library: pTyr-Var
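Further: displayed peptides selected on beads carrying the immobilized SH2 domain, with library peptides lacking any tyrosine serving as negative controls.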

Enrichment score, inactive:
B1 0.933, B2 0.807, B3 0.828, B4 0.854, B5 0.903, B6 0.861, B7 0.89, B8 0.642, B9 0.838, B10 0.393, B11 0.707, B12 0.745, B13 0.709, B14 0.936, B15 0.885, B16 1.52, B17 0.991, B18 0.792, B19 0.153

target: SHP2 C-SH2 domain wild-type; test: as above; details: peptide library: pTyr-Var

Enrichment score, inactive:
B1 0.736, B2 0.793, B3 0.65, B4 0.642, B5 0.866, B6 0.776, B7 0.921, B8 0.957, B9 0.623, B10 0.423, B11 0.637, B12 0.965, B13 0.914, B14 0.844, B15 0.88, B16 1.6, B17 1.42, B18 0.647, B19 0.178

target: SHP2 N-SH2 domain L43F; test: as above; details: peptide library: pTyr-Var

Enrichment score, inactive:
B1 0.808, B2 0.873, B3 0.689, B4 0.573, B5 0.862, B6 0.778, B7 0.888, B8 0.709, B9 0.729, B10 0.416, B11 0.706, B12 0.847, B13 0.655, B14 0.769, B15 0.926, B16 1.11, B17 0.781, B18 0.907, B19 0.211

target: SHP2 N-SH2 domain T42A; test: as above; details: peptide library: pTyr-Var

Enrichment score, inactive:
B1 0.706, B2 0.784, B3 0.639, B4 0.654, B5 0.853, B6 0.771, B7 0.841, B8 0.734, B9 0.767, B10 0.455, B11 0.777, B12 0.675, B13 0.83, B14 0.677, B15 1.03, B16 1.29, B17 1.03, B18 0.776, B19 0.247

target: SHP2 N-SH2 domain T52S; test: as above; details: peptide library: pTyr-Var

Enrichment score, inactive:
B1 0.872, B2 0.728, B3 0.843, B4 0.619, B5 0.861, B6 0.936, B7 0.79, B8 0.565, B9 0.82, B10 0.581, B11 0.765, B12 0.769, B13 0.597, B14 0.883, B15 0.847, B16 1.33, B17 1.44, B18 0.706, B19 0.205

target: SHP2 N-SH2 domain wild-type; test: as above; details: peptide library: pTyr-Var

Enrichment score, inactive:
B1 0.771, B2 0.727, B3 0.822, B4 0.697, B5 0.937, B6 0.687, B7 0.824, B8 0.968, B9 0.641, B10 0.499, B11 0.685, B12 1.15, B13 0.773, B14 0.918, B15 1.07, B16 1.49, B17 2.73, B18 0.787, B19 0.193
